{
  "source": "paper PMC7819943",
  "about": "“Rice protein-binding microarrays: a tool to detect cis-acting elements near promoter regions in rice”",
  "note": "This is one part of the list.",
  "data": [
    {"target": "T1, OsWOX13 (Oryza sativa, UniProt Q5QMM3 1-267)", "T1 sequence": "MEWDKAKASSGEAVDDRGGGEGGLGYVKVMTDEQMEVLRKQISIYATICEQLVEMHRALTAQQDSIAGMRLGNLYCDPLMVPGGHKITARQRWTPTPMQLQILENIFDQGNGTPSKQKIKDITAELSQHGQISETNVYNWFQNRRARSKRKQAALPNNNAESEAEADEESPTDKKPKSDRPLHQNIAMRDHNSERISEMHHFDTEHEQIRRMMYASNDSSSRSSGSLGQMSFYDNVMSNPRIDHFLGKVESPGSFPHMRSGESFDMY", "experiment": "protein-binding microarray (RPBM); PBS, 2% BSA, 51.3 ng/ul salmon testes DNA, 50 uM zinc acetate, 200 nM TF, 25 C, 1 h; high values mean tight binding", "details": "protein: recombinant; tags: N-terminal polyhistidine and DsRed monomer fusion (pET32a); label: CyDye5-dUTP incorporated in the synthesized complementary strand; 3' TTTTT single-stranded linker to array surface; dsDNA, one strand shown", "procedure,_shortened": "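A custom Agilent array was converted to double-stranded form by primer extension with Cy5-dUTP and blocked with 2% BSA. Protein at 200 nM in PBS with 2% BSA, salmon testes DNA and 50 µM zinc acetate was applied for 1 h at 25 °C, followed by washing. The proteins were polyhistidine–DsRed N-terminal fusions of transcription factors, expressed in E. coli BL21-CodonPlus and Ni–NTA-purified. The binding signal is per-feature fluorescence intensity (arbitrary units) from an Axon 4000B scanner.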", "values": [
      {"sequence": "AGAACTAAACTAATTTATGTGAAATTCCTGCCTATTTTGACGGAGTCACCTAGTGCAG", "binding signal": "7390 fluorescence intensity (a.u.)"},
      {"sequence": "GATATACTGTGATTTGAACCTGTTCCAGCTCTGAGGAAAACGGAGTCACCTAGTGCAG", "binding signal": "8830 fluorescence intensity (a.u.)"},
      {"sequence": "CTAAATTATACGGAGATGATAATGTAGTTACAGTGCAGTTCGGAGTCACCTAGTGCAG", "binding signal": "21900 fluorescence intensity (a.u.)"},
      {"sequence": "AAAATAAACACATTATTAATTTGTCTTACAAAATAGTACTCGGAGTCACCTAGTGCAG", "binding signal": "18900 fluorescence intensity (a.u.)"},
      {"sequence": "ATAATGATATAAATATATTTAGTAATAGTGAATTATGGGCCGGAGTCACCTAGTGCAG", "binding signal": "9340 fluorescence intensity (a.u.)"},
      {"sequence": "TTAATAGACAATGACTAATGAAATGCCTTCCTAAAAGCCCCGGAGTCACCTAGTGCAG", "binding signal": "11600 fluorescence intensity (a.u.)"},
      {"sequence": "AAAATACTTAAAATTATGTCATAATTATTAAAATATCTGACGGAGTCACCTAGTGCAG", "binding signal": "4900 fluorescence intensity (a.u.)"},
      {"sequence": "TCTCCCATTGATTTGCAGCTTGTTGTCAAAATGTGCTTGTCGGAGTCACCTAGTGCAG", "binding signal": "14900 fluorescence intensity (a.u.)"},
      {"sequence": "ATGTCTCTAATTGTCTTCCAAATTTCCTCCTCCCCGAAGTCGGAGTCACCTAGTGCAG", "binding signal": "13100 fluorescence intensity (a.u.)"},
      {"sequence": "GATAACAGCACCAATCTTAACATTGCAGCTTATTACACACCGGAGTCACCTAGTGCAG", "binding signal": "4370 fluorescence intensity (a.u.)"},
      {"sequence": "GATATAATTGCCACGTAAGCGCCACGTCAATGCCACGTGCCGGAGTCACCTAGTGCAG", "binding signal": "19400 fluorescence intensity (a.u.)"},
      {"sequence": "CCTAATTAATTCACCAGACGAAGTTAGTGTAATCCGAGGACGGAGTCACCTAGTGCAG", "binding signal": "28300 fluorescence intensity (a.u.)"},
      {"sequence": "GGAAGGAGTAATTGCTAAACCCAATACGGTGATAGGCCGCCGGAGTCACCTAGTGCAG", "binding signal": "3460 fluorescence intensity (a.u.)"},
      {"sequence": "TCCAAATAATTAAGTTGTCGCATAACTTCTTATCTTATTGCGGAGTCACCTAGTGCAG", "binding signal": "9760 fluorescence intensity (a.u.)"},
      {"sequence": "ATGCAGATGCTAATTGATCTTGAGGTCTGTGCAAGTCTTTCGGAGTCACCTAGTGCAG", "binding signal": "14300 fluorescence intensity (a.u.)"},
      {"sequence": "GAATAATCACAAGCTGTTTCTATCTGGATCAAATCTGATGCGGAGTCACCTAGTGCAG", "binding signal": "3660 fluorescence intensity (a.u.)"},
      {"sequence": "TCCCTTGATATGATGATAAATCCACTGATATTTGGACCGCCGGAGTCACCTAGTGCAG", "binding signal": "7520 fluorescence intensity (a.u.)"},
      {"sequence": "ACATATAATTGCCACGTCAGCGCCACATCAATGCCACGTGCGGAGTCACCTAGTGCAG", "binding signal": "23200 fluorescence intensity (a.u.)"},
      {"sequence": "CAAAACTTAATTAAACATAAGCTAATGGGCCGTTTTCATTCGGAGTCACCTAGTGCAG", "binding signal": "6880 fluorescence intensity (a.u.)"},
      {"sequence": "TATATATATATATATATATAGAGAGAGAGAGAGAGATTATCGGAGTCACCTAGTGCAG", "binding signal": "6530 fluorescence intensity (a.u.)"},
      {"sequence": "ACGGATTAATTAGGCTCAAAAGATTCGTCTCGCAGTTTACCGGAGTCACCTAGTGCAG", "binding signal": "24000 fluorescence intensity (a.u.)"},
      {"sequence": "CGTTCTACTCTTGATTTGAATTAGGGATGCAAGCGGGACGCGGAGTCACCTAGTGCAG", "binding signal": "5150 fluorescence intensity (a.u.)"},
      {"sequence": "ACATTAACGGCAAATCACTGTAGCACATTCATTCAATGCACGGAGTCACCTAGTGCAG", "binding signal": "11600 fluorescence intensity (a.u.)"},
      {"sequence": "ACAATTTGAGCATGATTTATATTCTACATATTTTAAAGTTCGGAGTCACCTAGTGCAG", "binding signal": "5480 fluorescence intensity (a.u.)"},
      {"sequence": "TTAACTGGGGCATGAAAAGTGATTGTACGGAGCAAAGTGTCGGAGTCACCTAGTGCAG", "binding signal": "4170 fluorescence intensity (a.u.)"},
      {"sequence": "ATTTTAACTAATTTTAAATTGTATTCCTACTTGAACTCTTCGGAGTCACCTAGTGCAG", "binding signal": "26800 fluorescence intensity (a.u.)"},
      {"sequence": "CATTAATGATGTGGAATAACAATGCAACTTAAACTTACAGCGGAGTCACCTAGTGCAG", "binding signal": "7110 fluorescence intensity (a.u.)"},
      {"sequence": "CAAATTTAACTCAAAATTAAATCTTCAATATTTATTTTGCCGGAGTCACCTAGTGCAG", "binding signal": "20500 fluorescence intensity (a.u.)"},
      {"sequence": "AATAATGATATGATTGAAAATAGCATTAATCTGAACAGCCCGGAGTCACCTAGTGCAG", "binding signal": "50400 fluorescence intensity (a.u.)"},
      {"sequence": "TTAATGACATATAAACAATGAGATGGCATCCCCTCGAGCGCGGAGTCACCTAGTGCAG", "binding signal": "4840 fluorescence intensity (a.u.)"},
      {"sequence": "CTCTCGACAATTTTAAATTAAAATTTCGACAGCAGAAAATCGGAGTCACCTAGTGCAG", "binding signal": "4070 fluorescence intensity (a.u.)"},
      {"sequence": "TGGGGATTGAGAGCATTTGAATTAGGGAGCAAGAGTTTCACGGAGTCACCTAGTGCAG", "binding signal": "5000 fluorescence intensity (a.u.)"},
      {"sequence": "CCCTGATGGCGTGATCAATCTAGTCTTCTGTGTATATAAACGGAGTCACCTAGTGCAG", "binding signal": "8370 fluorescence intensity (a.u.)"},
      {"sequence": "AAAACTAATTACAGAATCCGTCAGTAAATCGTGAGATAAACGGAGTCACCTAGTGCAG", "binding signal": "19000 fluorescence intensity (a.u.)"},
      {"sequence": "ATTTTAAATTTATTATTTAATTATATACTGTATAAACTTACGGAGTCACCTAGTGCAG", "binding signal": "9470 fluorescence intensity (a.u.)"},
      {"sequence": "GATGGTATTAACATATGATTGATTGAGTTTTAATTATTACCGGAGTCACCTAGTGCAG", "binding signal": "28700 fluorescence intensity (a.u.)"},
      {"sequence": "GTGTATAATAGATAATCTAGTTTCATGATGAATTGGATACCGGAGTCACCTAGTGCAG", "binding signal": "17100 fluorescence intensity (a.u.)"},
      {"sequence": "GCTGTCAACGACAAAATTATCATTTGTTGTTTTGACATAGCGGAGTCACCTAGTGCAG", "binding signal": "3950 fluorescence intensity (a.u.)"},
      {"sequence": "AATAGACAGCATTTTCGGCTTCCAACCGGCTACCTTCTTTCGGAGTCACCTAGTGCAG", "binding signal": "5900 fluorescence intensity (a.u.)"},
      {"sequence": "GTAGCAAATTGAATAGCTTCAAACTCCATCCCACATAGGTCGGAGTCACCTAGTGCAG", "binding signal": "20000 fluorescence intensity (a.u.)"},
      {"sequence": "GACCCAGGTAATTGCTGCTGCTGTAGTTGCCTTTGTTGGTCGGAGTCACCTAGTGCAG", "binding signal": "3790 fluorescence intensity (a.u.)"},
      {"sequence": "CCTAATCAGCATTTTAATTACTGGGATTCCAACTTACACACGGAGTCACCTAGTGCAG", "binding signal": "12200 fluorescence intensity (a.u.)"}
    ]}
  ]
}
